Measurements: ChEMBL document CHEMBL1201862, “PubChem BioAssay data set” (2004)
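All cell lines were grown in 96-well plates and treated with compound for 48 hours. GI50 is the concentration that inhibits growth by half.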 Activity calls are given as the source filed them. Rule as the data show it: active = GI50 up to about 1.1 µM and inactive = higher.

Tested on: NCI-H322M
Assay: NCI-60 cell line screen, 48 h

SMILES	GI50
COC1=C(Br)C(=O)c2nc(C)ccc2C1=O	inactive: 23.1 µM
COc1ccc(/C=C2\CCCCC2=O)cc1	inactive: > 100 µM
CS(=O)(=O)Nc1ccc2ccccc2c1-c1c(NS(C)(=O)=O)ccc2ccccc12	inactive: > 25 µM
OC1C2CCC1C1C3C=CC(C3)C21 (stereo not drawn)	inactive: > 100 µM
CN(C)CCC(/C=C/c1ccccc1)=N\Nc1ccccc1	inactive: 10.6 µM
CCOC(=O)c1cn(C)nc1N/C(C)=C\C(=O)c1ccccc1	inactive: > 100 µM
CC(C)(C)c1ccc(-n2c3nc(=O)n(-c4ccccc4C(F)(F)F)c(=O)c-3cc3ccccc32)cc1	inactive: 17.7 µM
O=[N+]([O-])c1ccc(/C(=N/c2ccccc2)SS/C(=N\c2ccccc2)c2ccc([N+](=O)[O-])o2)o1	inactive: 1.75 µM
CC[C@H](C)C1=C(O)[N@+]2([O-])Oc3ccc(-c4c(O)c(O)c(-c5ccc(OC(C)=O)cc5)c(OC(C)=O)c4OC(C)=O)cc3O[C@]2([C@@H](C)CC)C(=O)N1O	inactive: 29.4 µM
COc1cc(-c2[o+]c3cc(O)cc(OC4OC(CO)C(O)C(O)C4O)c3cc2OC2OC(CO)C(O)C(O)C2O)cc(OC)c1O (stereo not drawn)	inactive: > 100 µM
COc1ccc(C(OCC2OC(n3cc(C)c(=O)[nH]c3=O)CC2n2cc(Cn3cc(F)c(=O)[nH]c3=O)nn2)(c2ccccc2)c2ccccc2)cc1 (stereo not drawn)	inactive: 4.8 µM
CC(C)(C)N/N=C(/Cc1nc2c3c(ccc2nc1O)C(=O)c1ccccc1C3=O)C(=O)NC1=C(Cl)C(=O)c2ccccc2C1=O	inactive: 33 µM
C=CC(Br)(CBr)CCC(Br)C(C)(C)Cl (stereo not drawn)	inactive: 2.99 µM
C[n+]1cc(C(O)c2ccc3c(c2)OCO3)c2ccccc2c1 (stereo not drawn)	inactive: 32.3 µM
COc1nc(OC)c2c(=O)oc(-c3ccccc3)cc2n1	inactive: > 100 µM
COC(=O)C(/C(=N/N)C(=O)Nc1cc(Cl)c(Cl)cc1Cl)c1nc2ccc(Cl)cc2nc1O (stereo not drawn)	inactive: > 100 µM
O=C(O)/C=C\C(=O)c1ccc(Cl)cc1	inactive: > 100 µM
CC(=O)NCCC1CN(C(=O)/C=C\I)c2ccccc21 (stereo not drawn)	inactive: 16.1 µM
N#CC1Cc2cc3c(cc21)OCO3 (stereo not drawn)	inactive: > 100 µM
Cc1cc(S(=O)(=O)NC2=Nc3ccc(Cl)cc3C(c3ccccc3)N2)c(S)cc1Cl (stereo not drawn)	inactive: 20.3 µM
COc1cc(CC(=O)c2cc3c(cc2-c2ccccc2)OCO3)cc(OC)c1OC	inactive: > 100 µM

SMILES	GI50
N#Cc1cc(C#N)c(Cl)nc1N	inactive: > 10 µM
Cc1nc(-c2ccccc2)c(-c2ccccc2)s1	inactive: 31.3 µM
CC(=O)O[C@H]1CC[C@@]2(C)C(=CC[C@@H]3C2CC[C@]2(C)Nc4c(cnn4-c4ccccc4)CC32)C1 (stereo partly drawn)	inactive: 5.77 µM
CSc1c(C(=O)Nc2ccccc2)c(N)n(N)c(=O)c1C#N	inactive: > 100 µM
O=C1CCCCCCCCCCC1CN(Cc1ccccc1)Cc1ccccc1 (stereo not drawn)	inactive: > 100 µM
CCCCCCCCCCCC(=O)OCCOCCOCCOCCOCCOCc1ccccc1	inactive: > 100 µM
COc1ccc(/C(=C/n2ccnc2)C(O)c2ccc(OC)c(OC)c2)cc1OC (stereo not drawn)	inactive: > 100 µM
CCCCc1c2c(nc3c1CCC/C3=C\c1ccccc1)/C(=C/c1ccccc1)CCC2	inactive: > 100 µM
COc1ccc(/C=C2\CCC(C)C3=C2NC(=S)NC3c2ccc(OC)c(OC)c2)cc1OC (stereo not drawn)	inactive: 27.5 µM
CCCn1c(=O)c2nn3c(=O)n(CCC)c(=O)c3nn2c1=O	inactive: > 100 µM
O=C(O)CCC1NC(/C(=C/c2ccccc2O)NC(=O)c2ccccc2)OC1=O (stereo not drawn)	inactive: > 100 µM
O=C(O)c1nc2ccc(C(F)(F)F)cc2nc1NCc1ccc(F)cc1	inactive: 23.7 µM
O=c1/c(=C/c2ccc([N+](=O)[O-])o2)sc2n1[C@@H](c1ccc(Cl)cc1)C=C(c1cc(F)c(Cl)cc1Cl)N=2	inactive: 14.3 µM
O=c1[nH]c(=O)n(C2CC(O)C(CO)O2)cc1C#Cc1ccc(C(F)(F)F)cc1 (stereo not drawn)	inactive: > 100 µM
CC1=CCC[C@@](C)(O)[C@@H]2C[C@H]3C(CSc4ccccc4)C(=O)O[C@H]3[C@@H](O2)[C@H](C)CCC1 (stereo partly drawn)	inactive: 19.2 µM
O=C1Nc2ccc(Br)cc2/C1=N/Nc1ccc([N+](=O)[O-])cc1[N+](=O)[O-]	inactive: 10.9 µM
Cc1cc2c(C)nn(Cc3ccccc3Cl)c2c(C#N)c1C	inactive: > 100 µM
CC(=O)OCC1OC(n2c(=S)n(-c3ccccc3)c(=O)c3cc(Br)ccc32)C(OC(C)=O)C(OC(C)=O)C1OC(C)=O (stereo not drawn)	inactive: > 100 µM
C[C@H]1C=C2[C@@H]3CC(C)(C(=O)O)CC[C@]3(C)CC[C@]2(C)[C@]2(C)CC[C@H]3C(C)(C)[C@@H](OC(=O)c4cccc5c(=O)c6ccccc6[nH]c45)CC[C@]3(C)[C@@H]12 (stereo partly drawn)	inactive: > 100 µM
COC(=O)C(=O)C(C(=O)C1=NS(=O)(=O)c2cc(S(N)(=O)=O)c(Cl)cc2N1)c1nc2ccc(C(=O)c3ccccc3)cc2nc1O (stereo not drawn)	inactive: > 100 µM
Cc1ccc(SC(=O)N2C(=S)N=C(NC3CCCCC3)C23CCCCC3)cc1	inactive: > 100 µM

SMILES	GI50
CCCCCCCCCCC(O)[C@H]1CCC(C2CC[C@H]([C@H](O)CCCCCCCCCCC(O)CC3=CC(C)OC3=O)O2)O1 (stereo partly drawn)	inactive: 3.46 µM
CC(C)(C)OC(=O)NCCCCC(NC(=O)OCc1ccccc1)C(N)=O (stereo not drawn)	inactive: > 100 µM
CC(C)c1ccc(NC(=S)NC(=O)c2ccccc2)cc1	inactive: 35.2 µM
Cc1ccc([S+](c2ccccc2)c2cc(C)ccc2C)cc1 (stereo not drawn)	active: 0.094 µM
CC1(C)[C@@H]2CC[C@@]1(C)[C@@H]1O[C@@H](O[C@@H](CN)c3cc(Cl)c(OCc4ccccc4)c(OCc4ccccc4)c3)C[C@H]21	active: 0.174 µM
O=C(c1ccccn1)c1nnn2ccccc12	inactive: > 100 µM
CS/C(C)=N/OC(=O)NCCCCNc1ccc(N=[N+]=[N-])cc1	inactive: 68.4 µM
CCn1sc2ccccc2c1=O	inactive: 27.8 µM
CN(C)CCNC(=O)c1cccc2nc3cc(Cl)ccc3nc12	inactive: 2.08 µM
C(=N\Cc1ccccc1)/c1ccccc1-c1ccccc1/C=N/Cc1ccccc1	inactive: > 10 µM
Cc1nc2[nH]ccn2c(=O)c1CCCl	inactive: 40.9 µM
COc1ccc(-c2c(C(C)=O)c(C)n(C3OC(CO)C(O)C(O)C3O)c(=S)c2C#N)cc1 (stereo not drawn)	inactive: > 100 µM
C#CCN1CCN(C(=S)N/N=C(\C)c2ccccn2)CC1	active: 0.22 µM
O=C(c1ccccc1)c1ccc2[nH]c(-c3c(Cl)c(Cl)c(Cl)c(Cl)c3C(=O)N/N=C/c3cccc(Oc4ccccc4)c3)nc2c1	inactive: > 100 µM
COc1cccc(C(=O)O)c1Cc1cccc2ccccc12	inactive: > 100 µM
CN(CCN(C)C(=O)CCOS(C)(=O)=O)C(=O)CCOS(C)(=O)=O	inactive: > 100 µM
O=C(O)c1ccc(NNc2cc(=O)[nH]c(=O)[nH]2)cc1	inactive: > 100 µM
O=C(c1ccccc1)c1ccc2c(c1)NC(=O)c1ccccc1SSc1ccccc1C(=O)N2	inactive: > 100 µM
C[C@]12CCC(=O)C[C@H]1CCC(O)[C@@H]2Br (stereo partly drawn)	inactive: > 100 µM
Cc1cc(NC(=O)NC(=O)c2ccccc2N(C)C)ccc1Oc1ncc(Br)cn1	inactive: 2.22 µM
O=C1/C(=N/CCc2cc(Br)c(O)c(Br)c2)C=C(O)c2cccnc21	inactive: 1.96 µM
